Source: PubChem BioAssay AID1745853 (National Center for Advancing Translational Sciences (NCATS), 2022)
Several values for one entry are separate records, joined by “and”; a condition that tells them apart may be missing. Equal values may be shown once. The list shows a part of the results. These are further read-outs of the screen, such as a control signal, another cell line or another target. No call is given for them.

What was measured:
Assay in all cases: Primary Screen for Target Class Profiling of Small Molecule Inhibitors of Methyltransferases
[1] = target: Glycine N-methyltransferase (Homo sapiens) (UniProt Q14749); settings: purified enzyme, MTase-Glo SAH luminescence; measured here: GNMT inhibition; at 40 µM; stronger effect = lower value
In short: (§1)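 Each enzyme was reacted with SAM and its substrate, with compounds tested once at 40 uM; SAH formed was read by MTase-Glo luminescence.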

[2] = target: Guanidinoacetate N-methyltransferase (Homo sapiens) (UniProt Q14353); settings: purified enzyme, MTase-Glo SAH luminescence; measured here: GAMT inhibition; at 40 µM; stronger effect = lower value
In short: as §1

[3] = target: Histamine N-methyltransferase (Homo sapiens) (UniProt P50135); settings: purified enzyme, MTase-Glo SAH luminescence; measured here: HNMT inhibition; at 40 µM; stronger effect = lower value
In short: as §1

[4] = target: Nicotinamide N-methyltransferase (Homo sapiens) (UniProt P40261); settings: purified enzyme, MTase-Glo SAH luminescence; measured here: NNMT inhibition; at 40 µM; stronger effect = lower value
In short: as §1

[5] = target: Phenylethanolamine N-methyltransferase (Homo sapiens) (UniProt P11086); settings: purified enzyme, MTase-Glo SAH luminescence; measured here: PNMT inhibition; at 40 µM; stronger effect = lower value
In short: as §1
% is scaled to controls: 0 for no effect and ±100 for the full control effect.

O=C(NCC1(Cn2cccn2)CC1)c1ccc(C2CCNC2)cc1 (stereo not given)
activity change, negative = inhibition [1]: -0.281%
activity change, negative = inhibition [2]: -5.1%
activity change, negative = inhibition [3]: -4.29%
activity change, negative = inhibition [4]: 3.55%
activity change, negative = inhibition [5]: 0.12%

O=C(Cn1ccc2cc(S(=O)(=O)N3CCCCC3)ccc21)NCCc1ccccc1
activity change, negative = inhibition [1]: 1.77%
activity change, negative = inhibition [2]: 1.91%
activity change, negative = inhibition [3]: 0.687%
activity change, negative = inhibition [4]: -6.92%
activity change, negative = inhibition [5]: -4.27%

CCN1CCN(CCNC(=O)Cn2ccc3cc(S(=O)(=O)N4CCCCC4)ccc32)CC1
activity change, negative = inhibition [1]: 3.55%
activity change, negative = inhibition [2]: 2.61%
activity change, negative = inhibition [3]: -25.2%
activity change, negative = inhibition [4]: -1.75%
activity change, negative = inhibition [5]: -3.03%

CN1CCN(CCCNC(=O)CCCn2nc(-c3ccccc3)c3cc(Cl)ccc32)CC1
activity change, negative = inhibition [1]: -0.292%
activity change, negative = inhibition [2]: 4.81%
activity change, negative = inhibition [3]: -5.58%
activity change, negative = inhibition [4]: 9.34%
activity change, negative = inhibition [5]: -7.27%

O=C(O)c1ccc(Nc2ncc3c(n2)-c2ccc(Cl)cc2C(c2c(F)cccc2F)=NC3)cc1
activity change, negative = inhibition [1]: -10.3%
activity change, negative = inhibition [2]: 1.58%
activity change, negative = inhibition [3]: -2.1%
activity change, negative = inhibition [4]: -25.6%
activity change, negative = inhibition [5]: -4.06%

Clc1cc2c(NC3CCCC3)nnc(-c3ccncc3)c2cc1Cl
activity change, negative = inhibition [1]: -18.8%
activity change, negative = inhibition [2]: 1.04%
activity change, negative = inhibition [3]: -6.8%
activity change, negative = inhibition [4]: -24.5%
activity change, negative = inhibition [5]: -9.45%

CCC(C)NC(=O)c1ccc2c(=O)n(Cc3ccccc3)c3nn(Cc4ccccc4F)c(=O)n3c2c1 (stereo not given)
activity change, negative = inhibition [1]: 2.12%
activity change, negative = inhibition [2]: 2.96%
activity change, negative = inhibition [3]: 0.816%
activity change, negative = inhibition [4]: -4.27%
activity change, negative = inhibition [5]: -0.004%

CC[C@@H](Nc1c(Nc2cccc(C(=O)N(C)C)c2O)c(=O)c1=O)c1cc(C(C)C)co1
activity change, negative = inhibition [1]: 4.21%
activity change, negative = inhibition [2]: -2.28%
activity change, negative = inhibition [3]: -2.92%
activity change, negative = inhibition [4]: -21.9%
activity change, negative = inhibition [5]: -15.2%

COCCCN1C(=O)c2nc3ccccc3n2CC1(C)C(=O)NC1CCCCCC1 (stereo not given)
activity change, negative = inhibition [1]: 3.91%
activity change, negative = inhibition [2]: 0%
activity change, negative = inhibition [3]: 7.76%
activity change, negative = inhibition [4]: 9.39%
activity change, negative = inhibition [5]: 1.01%

COC(=O)[C@H]1[C@H]2C[C@@H]3c4[nH]c5cc(OC)ccc5c4CCN3C[C@H]2C[C@@H](OC(=O)c2cc(OC)c(OC)c(OC)c2)[C@@H]1OC
activity change, negative = inhibition [1]: -2.79% and -25.6%
activity change, negative = inhibition [2]: -6.24% and -2.95%
activity change, negative = inhibition [3]: 0.616% and -9.04%
activity change, negative = inhibition [4]: -45.8% and -32.4%
activity change, negative = inhibition [5]: -3.1% and -9.21%

CN(C)[C@@H]1CO[C@H](CNC(=O)CC(C)(C)C)[C@H]1O
activity change, negative = inhibition [1]: -1.09%
activity change, negative = inhibition [2]: -0.685%
activity change, negative = inhibition [3]: -1.49%
activity change, negative = inhibition [4]: -1.6%
activity change, negative = inhibition [5]: -1.67%

CCc1cc2c(cc3n2CC(C)(C(=O)NC2CCCCCC2)N(c2cccc(Cl)c2C)C3=O)s1 (stereo not given)
activity change, negative = inhibition [1]: 0.532%
activity change, negative = inhibition [2]: 4.92%
activity change, negative = inhibition [3]: -0.515%
activity change, negative = inhibition [4]: 3.6%
activity change, negative = inhibition [5]: -2.27%

CCCN1C(=O)c2cc(-c3ccccc3)nn2CC1(C)C(=O)NCc1ccccc1 (stereo not given)
activity change, negative = inhibition [1]: 1.09%
activity change, negative = inhibition [2]: 0.561%
activity change, negative = inhibition [3]: 2.4%
activity change, negative = inhibition [4]: 8.34%
activity change, negative = inhibition [5]: -1.48%

CCn1ncc(CN2C[C@@H](COC)[C@H](c3ccncc3)C2)c1C
activity change, negative = inhibition [1]: -2.61%
activity change, negative = inhibition [2]: 0.426%
activity change, negative = inhibition [3]: -1.72%
activity change, negative = inhibition [4]: -8.4%
activity change, negative = inhibition [5]: -1.35%
